The results in this text go back to ChEMBL document CHEMBL4888484, “Replenishing the malaria drug discovery pipeline: Screening and hit evaluation of the MMV Hit Generation Library 1 (HGL1) against asexual blood stage Plasmodium falciparum ,using a nano luciferase reporter read-out” (2022).

A word on the % Inhibition: it is the change of the read-out against control, counted positive when it falls.

In all, about 150,000 compounds went through this assay and about 540 (0.36%) showed an effect of 50% or more. The list shows a part of the results.

The subject of this assay is Plasmodium falciparum. As to the kind of experiment: Primary screen in NF54 nanoGlo assay, in single point, at 2uM, 72h; a lower Z score goes with more inhibition. The format is functional, Erythrocyte. The note with it: timepoint 72 hour.
Consider `O=C(Nc1ccc(Cl)cc1)N1[C@@H](Cc2ccccc2)COC12CCN(c1ncc(C(F)(F)F)cc1Cl)CC2`, for which the “% Inhibition” value is recorded as -12% and the Z score is reported as 1.74.
For `Cc1ccc(C)n1CC(=O)NCc1nc(-c2c(F)cccc2Cl)no1`, the “% Inhibition” value is -9% and the Z score turned out to be 1.18.
In the case of `Cc1cc(CCC(=O)N2C3CCC2CC(n2ccnn2)C3)ccc1F` (stereo not drawn), the “% Inhibition” value is on record as -5% and the Z score is reported as 0.73.
`CC(=O)Nc1nc(C(=O)N(C)Cc2cc(C)on2)cs1`: the “% Inhibition” value is -3% and the Z score amounted to 0.59.
Consider `O=C(NC[C@H]1CCCO1)c1ccc(CN2CCN(c3ccccc3)CC2)o1`, for which the “% Inhibition” value is recorded as -4% and the Z score is 0.61.
Consider `CNC(=O)C(C)(C)CNc1ccc(C#N)cn1`, for which the “% Inhibition” value is reported as 1% and the Z score was -0.11.
The like results for `Cc1ccc(CCNC(=O)c2cnc3c(-c4cccc(C)c4)c(C)nn3c2C(F)(F)F)cc1` were, in that order, -6% and 0.65.
Take `COC(C)(C)C(=O)N[C@@H](C)C1=CCCCC1`: the “% Inhibition” value is 3% and the Z score is -0.59.
On to `Cc1nnsc1C(=O)NC[C@H]1Cc2ccccc2CO1`, for which the “% Inhibition” value is recorded as 4% and the Z score is reported as -0.44.
On to `Cn1cc(CNC(=O)c2coc(COc3ccc(F)cc3)n2)cn1`, for which the “% Inhibition” value is listed as -8% and the Z score is 1.52.
In the same order, the values of `CC[C@H](C)c1csc(NC(=O)N(C)Cc2ncnn2C)n1` are -15% and 2.35.
Take `Cc1cccc(CN(C(=O)Cc2n[nH]c(=O)[nH]2)C(C)C)c1`: the “% Inhibition” value is -4% and the Z score amounted to 0.59.
Turning to `CN1CCC(n2nc(-c3cccnc3)nc2CCc2cccnc2)CC1`, the “% Inhibition” value is -7% and the Z score is 0.68.
In the case of `Cn1nc(C(=O)N2CCN(c3cc(C(F)(F)F)ncn3)CC2)ccc1=O`, the “% Inhibition” value is -13% and the Z score amounted to 1.61.
For the compound `C=CCC(O)(CC=C)CNC(=O)c1c[nH]c(=O)[nH]c1=O`, the “% Inhibition” value is reported as 1% and the Z score was -0.08.
For `O=C(NCc1cccnc1OCC(F)F)C1=CCCC1`, the “% Inhibition” value is listed as -6% and the Z score amounted to 0.86.
In the case of `CCOc1ccc(C(=O)NCc2cc(=O)[nH]c(C3CCC3)n2)cc1`, the “% Inhibition” value is reported as -14% and the Z score came out at 1.82.
As for `CN(CC[C@H]1CCCCO1)C(=O)CN1CC(=O)N(C)c2ccccc2C1=O`, the “% Inhibition” value was -3% and the Z score amounted to 0.49.
On to `COC(=O)c1cccc(NC(=O)c2cscn2)c1OC(C)C`, for which the “% Inhibition” value is -5% and the Z score is on record as 0.78.
For `CN(CC(=O)N1CCCC[C@@H]1Cc1ccc(F)cc1)S(C)(=O)=O`, the “% Inhibition” value came to 3% and the Z score is recorded as -0.36.
With `COc1cccc(CN2CCCn3cccc3[C@H]2c2cccc(OC)c2OC)c1OC`, the “% Inhibition” value was -15% and the Z score is reported as 1.48.
As to `C=CCN1CCN(C(=O)C(CC)Oc2ccc3c(c2)C(c2cccc(F)c2)N(C(=O)CC(C)C)CC3)CC1` (stereo not drawn), the “% Inhibition” value is reported as -11% and the Z score turned out to be 1.75.
Consider `COc1ccc(Cl)cc1N1CC[C@H](NC(=O)Cc2cnn(C)c2)C1`, for which the “% Inhibition” value is listed as -5% and the Z score is given as 0.82.
On to `CN(C(=O)C1CCOCC1)C1CCC1O` (stereo not drawn), for which the “% Inhibition” value is recorded as -19% and the Z score came to 2.39.
In the same order, the values of `CC1CN(CC(=O)NC2CCCCCC2)CC(C)O1` (stereo not drawn) are -5% and 0.65.
Regarding `CN1C[C@H](c2ccc(F)cc2)C(C(=O)c2cccnc2)[C@]12C(=O)Nc1ccc(F)cc12` (stereo partly drawn), the “% Inhibition” value is -11% and the Z score is 1.38.
The like results for `O=C(C1CCCC1)N1CCc2nc(N3CCCCC3)nc(Oc3ccccc3)c2C1` were, in that order, -5% and 0.56.
The like results for `CCCc1nc(CS(=O)(=O)Cc2ccn(C3CCCC3)n2)no1` were, in that order, -4% and 0.34.
As for `COc1ccc(CN[C@H]2[C@H](O)[C@H](O)C[C@@H]2c2cccnc2)cc1`, the “% Inhibition” value stood at 8% and the Z score is on record as -1.51.
Consider `Cc1ccc(-c2cn[nH]c2[C@H]2CCCN(C(=O)c3[nH]cnc3C)C2)cc1`, for which the “% Inhibition” value is listed as -5% and the Z score is 0.87.
In the same order, the values of `O=C(Cc1ccccc1)Nc1ccc([C@@H](O)[C@H]2COCC(=O)N2)cc1` are 29% and -3.23.
In the case of `O=C(Nc1ccc2c(c1)OCCO2)N1CCC[C@@H]1CO`, the “% Inhibition” value is -5% and the Z score is on record as 0.79.
Turning to `Cn1c(=O)c2ccn(CC(=O)N3CCCCC3)c2n(C)c1=O`, the “% Inhibition” value is -12% and the Z score came to 1.9.
The like results for `O=C(COCc1nnc(C(=O)Nc2cccc(F)c2)s1)NCc1ccco1` were, in that order, -5% and 0.69.
On to `Cc1ccc(NC(=O)c2nnn3c2NC(C(=O)O)=C[C@H]3c2ccccc2)cc1`, for which the “% Inhibition” value is listed as -6% and the Z score came to 0.87.
In the same order, the values of `Cc1cc(C(=O)NCCn2nc3c(cc2=O)CCC3)no1` are 2% and -0.32.
Consider `CCC(=O)N[C@@H]1c2ccccc2C2(CCN(Cc3cc(C(C)C)[nH]n3)CC2)[C@H]1OC`, for which the “% Inhibition” value came to 15% and the Z score was -1.92.
Consider `O=C(Cc1cccs1)N1C[C@@H]2C[C@H](NS(=O)(=O)c3cccs3)[C@H]1C2`, for which the “% Inhibition” value stood at 30% and the Z score was -3.45.
Turning to `Cc1nn(CC2CC2)c(=O)n1-c1ccc(F)cc1`, the “% Inhibition” value stood at 37% and the Z score is on record as -4.75.
The like results for `COCCCNS(=O)(=O)c1ccc(-c2[nH]ncc2C(=O)N2CCCC2)o1` were, in that order, -5% and 0.6.
For the compound `C[C@@H](NC(=O)C1CCc2cn[nH]c2C1)c1ccccc1Cl` (stereo partly drawn), the “% Inhibition” value came to 9% and the Z score is recorded as -1.17.
Take `CO[C@H]1CC[C@@]2(OC)CCN(C(=O)c3c(C)ncnc3C)[C@H]2C1`: the “% Inhibition” value was determined as 1% and the Z score was -0.27.
In the same order, the values of `Cc1cc(S(=O)(=O)N2CCOCC3(CC3)C2)ccc1C#N` are -5% and 0.87.
Regarding `CNc1nc2c(s1)C[C@@H](C(F)(F)F)CC2`, the “% Inhibition” value was 4% and the Z score was -0.69.
The like results for `COc1ccccc1NC(=O)[C@H]1CCCN(S(=O)(=O)c2ccc3c(c2)NC(=O)CO3)C1` were, in that order, -3% and 0.56.
Consider `O=S(=O)(N1CCCCC1)N1CCCN(Cc2ccnn2-c2ccccc2)CC1`, for which the “% Inhibition” value is -15% and the Z score is given as 1.88.
For `CCn1nc(C(=O)Nc2ccccc2)cc1-c1ccc(Cl)s1`, the “% Inhibition” value is reported as -7% and the Z score is 0.99.
The like results for `CC1=C(C(=O)Nc2ccccc2Oc2ccccc2)CCCO1` were, in that order, 7% and -1.01.
Regarding `Cc1ccc(F)cc1-c1cccc(C(=O)N[C@H]2CCCNC2=O)c1`, the “% Inhibition” value is 6% and the Z score is on record as -1.27.
As to `COc1ccc(CCNC(=O)N2CC3CC2C(=O)O3)cc1` (stereo not drawn), the “% Inhibition” value is on record as -12% and the Z score was found to be 2.29.
Consider `CN(C(=O)[C@H]1CCC(=O)N(C2CCCCCC2)C1)C1CCOCC1`, for which the “% Inhibition” value was 17% and the Z score was -2.17.
Regarding `CC(=O)N1CC[C@H]2CN(C(=O)c3ccc(C)c(C)c3)C[C@@]2(CO)C1`, the “% Inhibition” value was -12% and the Z score worked out at 1.69.
In the case of `Cc1ccc(-c2nccn3cc(C(=O)NCCCN4CCCC4)nc23)cc1`, the “% Inhibition” value worked out at 3% and the Z score is -0.4.
Take `COc1ccc(CN2CCCN(c3nnc(C)o3)CC2=O)cc1`: the “% Inhibition” value is -6% and the Z score worked out at 1.05.
`CC(C)c1c(C2CCN(C(=O)c3cccc(C#N)c3)CC2)noc1N`: the “% Inhibition” value is listed as -2% and the Z score worked out at 0.32.
Turning to `C=C(C)COc1cccc(NC(=O)C(=O)NCc2csc(C)n2)c1`, the “% Inhibition” value came out at 1% and the Z score is on record as -0.16.
As for `Cc1cc(C)cc(OCc2nnc3n2CCN(C(=O)OC(C)(C)C)C3)c1`, the “% Inhibition” value was 4% and the Z score is listed as -0.64.
For the compound `N#Cc1ccccc1NC(=O)c1cc(S(=O)(=O)N2CCCC2)cs1`, the “% Inhibition” value is given as -6% and the Z score amounted to 1.16.
Consider `C#CCCC1(CCC(=O)N2CCOc3c2c(C)nn3C)N=N1`, for which the “% Inhibition” value is 0% and the Z score is reported as -0.05.
With `Cn1cccc(C(=O)NC2CCN(c3cc4c(nn3)CCCC4)CC2)c1=O`, the “% Inhibition” value is listed as -11% and the Z score was determined as 1.92.
The like results for `CN(C[C@@H]1C[C@H](F)CN1Cc1ccnn1C)S(=O)(=O)CC12CCC(CC1)C2` were, in that order, -7% and 0.56.
As to `C=CCNc1nc(-c2ccc3c(c2)CCCC(=O)N3)cs1`, the “% Inhibition” value was -6% and the Z score came to 0.79.
The like results for `Cc1nn(C)c(C)c1CNc1ccc2nnnn2n1` were, in that order, -8% and 1.02.
`O=S(=O)(Nc1ccccc1-c1cn2c(n1)CCCC2)C1CC1`: the “% Inhibition” value was found to be 8% and the Z score is -1.04.
With `Cc1nc(CC(C)C)oc1C(=O)Nc1ccc(N2CCOC[C@@H]2C)cc1`, the “% Inhibition” value turned out to be 3% and the Z score is reported as -0.33.
The like results for `O=C(N[C@H]1CCCCNC1=O)c1ccsc1` were, in that order, 6% and -0.89.
With `COc1cc2c(-c3ccccc3)c(C)oc2cc1CN1CCc2nnc(CNC(C)=O)n2CC1`, the “% Inhibition” value is recorded as -4% and the Z score is recorded as 0.44.
Take `CN1CCN(C(=O)c2ccc3c(c2)OCCO3)CC1=O`: the “% Inhibition” value is given as -3% and the Z score is 0.57.
For the compound `Nc1ccc2c(c1)[C@@H](O)C[C@@H](C(F)(F)F)O2`, the “% Inhibition” value is recorded as 29% and the Z score was -3.33.
The like results for `COCCn1c(=O)n([C@H]2CCCN(C(=O)Nc3cccc(C)c3)C2)c2ncccc21` were, in that order, -5% and 0.66.
As to `CS(=O)(=O)N1CCC(Cc2ccc(C(=O)N3CCc4ccccc43)cc2)CC1`, the “% Inhibition” value was -2% and the Z score was found to be 0.33.
With `COc1c(C)cnc(Cn2cnc(C#N)c2C#N)c1C`, the “% Inhibition” value is recorded as -4% and the Z score was 0.57.
Turning to `COc1ccc2c(c1)CCC[C@@]2(O)CNC(=O)c1ccc(S(=O)(=O)N(C)C)cc1`, the “% Inhibition” value is given as -1% and the Z score is 0.18.
On to `Cc1ccc(C(=O)NCCCC(C)C)n1C`, for which the “% Inhibition” value is -15% and the Z score is given as 2.43.
Consider `Cc1nc([C@H](C)NC(=O)c2ccn(C(C)C)n2)n[nH]1`, for which the “% Inhibition” value is -16% and the Z score is 3.23.
For the compound `CC(C)c1nn(-c2cccc(Cl)c2)c(C(C)C)c1C(=O)NC[C@H]1CCCO1`, the “% Inhibition” value came to 7% and the Z score is -0.99.
In the case of `O[C@@]1(Cn2ccnc2-c2ccncc2)CCCOC1`, the “% Inhibition” value is recorded as -9% and the Z score is 1.49.
In the same order, the values of `O=S(=O)(Oc1cccc(-n2cncn2)c1)c1cc(F)cc(F)c1` are -8% and 1.16.
As to `O=C1CC[C@H]2CN(S(=O)(=O)c3ccccc3F)CCN12`, the “% Inhibition” value came to 8% and the Z score is recorded as -0.95.
Consider `O=C1OCCN1CCCN1C(=O)NC2(CCCCCCC2)C1=O`, for which the “% Inhibition” value is recorded as -3% and the Z score was 0.4.
As for `CCC(=O)N1CC[C@H](NC(=O)Nc2ccc3nn(C(C)C)cc3c2)C1`, the “% Inhibition” value was -5% and the Z score is reported as 0.54.
Take `CN(C)[C@H]1CCN(C(=O)c2ccc(F)c(Cl)c2)C[C@H]1CCCO`: the “% Inhibition” value is given as -11% and the Z score was determined as 1.2.
Consider `CCOc1ccc(S(=O)(=O)N2CCC[C@](CC3CC3)(C(N)=O)C2)cc1`, for which the “% Inhibition” value is listed as -9% and the Z score was found to be 1.21.
Regarding `NC(=O)CCc1nc(CCc2ccccc2)no1`, the “% Inhibition” value is recorded as 8% and the Z score is reported as -1.22.
